# Data as given in PubChem BioAssay (NCATS).
# Some of the results follow. Shown are side measurements of this screen, not its main read-out; they come without a call. Compounds called inactive in the main read-out are mostly missing here. The note in brackets gives the kind of curve behind each potency; many fits are weak.
# Test: qHTS Assay for Lipid Storage Modulators (AID 1519)
# Details: Drosophila S3 cells, BODIPY lipid droplet/cell ratio, laser cytometry, cells loaded with oleic acid
# In short: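 Cells seeded at 5,000 per well were treated with compounds over a concentration series and loaded with oleic acid (400 uM, as added). Lipid droplet fluorescence (488 nm excitation, 500-530 nm channel) was read by laser-scanning cytometry and normalized to 20 uM Triacsin C.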
# [1] = measured here: cell count channel max response
# [2] = measured here: cell number channel AC50
# [3] = measured here: lipid (BODIPY) channel AC50
# [4] = measured here: lipid channel max response
# Tags give direction and shape of the fitted curve.
SMILES,max response [1],AC50 [2],AC50 [3],max response [4]
C=C1CCC(O)C/C1=C\C=C1/CCCC2(C)C1CCC2C(C)/C=C/C(C)C(C)C (stereo not given),69%,"35.5 µM [rising, partial curve, poor fit]","35.5 µM [rising, partial curve, poor fit]",81.4%
COc1cc2c(cc1OC)C(c1ccccc1)CN(C)CC2 (stereo not given),49.8%,"39.8 µM [rising, single point]","39.8 µM [rising, single point]",49.6%
COc1ccc(-n2c(=O)c(CCc3ccccc3)nc3cnc(N(C)C)nc32)cc1,22.2%,"0.0562 µM [rising, full curve, poor fit]","0.0355 µM [rising, full curve, poor fit]",26.8%
COCCn1c(=O)c(-c2cc(F)cc(F)c2)nc2cncnc21,33.1%,"10 µM [rising, partial curve]","12.6 µM [rising, partial curve]",40.7%
CCCCCCCC/C=C\CCCCCCCC(=O)N[C@@H](CO)Cc1ccc(O)cc1,60.8%,"39.8 µM [rising, single point]","39.8 µM [rising, single point]",48.3%
COc1cccc(Cn2c(=O)c(-c3cccc(F)c3)nc3cncnc32)c1,27.7%,"0.355 µM [rising, full curve]","0.316 µM [rising, full curve]",40%
CN(Cc1ccco1)c1cc(-c2ccccc2C(F)(F)F)ncn1,33.6%,"6.31 µM [rising, full curve]","5.01 µM [rising, full curve]",38.8%
CCCCC(CC)CN=C(N)NC(N)=NCCCCCCN=C(N)NC(N)=NCC(CC)CCCC (stereo not given),-92.9%,"31.6 µM [falling, partial curve]","25.1 µM [falling, partial curve]",-97%
COc1cccc(Cn2c(=O)c(-c3cccs3)nc3cnc(OCc4ccccc4)nc32)c1,45%,"3.16 µM [rising, full curve]","2.82 µM [rising, full curve]",53.1%
COc1ccc(-c2nc3cnc(N4CCOCC4)nc3n(Cc3cccs3)c2=O)cc1,26.6%,"2.51 µM [rising, full curve, poor fit]","2.24 µM [rising, full curve]",33.9%
CCOC(OCC)P(=O)(O)CCCNCc1ccc(Cl)c(Cl)c1,48.5%,"35.5 µM [rising, single point]","31.6 µM [rising, partial curve]",56.5%
CCOc1ccccc1O[C@@H](c1ccccc1)[C@@H]1CNCCO1,67.6%,"15.8 µM [rising, partial curve, poor fit]","5.01 µM [rising, full curve]",90.8%
COc1ncc2nc(-c3ccccc3)c(=O)n(Cc3cccs3)c2n1,9.18%,"3.55 µM [rising, partial curve]","3.55 µM [rising, partial curve]",18.2%
C=C(CO)C1Cc2c(ccc3c2OC2COc4cc(OC)c(OC)cc4C2C3=O)O1 (stereo not given),54.3%,"0.501 µM [rising, full curve]","0.794 µM [falling, full curve]",-60.5%
COc1cc2c(CCNC(C)=O)c[nH]c2cc1Cl,80.8%,"11.2 µM [rising, partial curve]","14.1 µM [rising, partial curve]",113%
COc1ccccc1-c1nc(N2CCOCC2)c2ccccc2n1,36.5%,"1 µM [rising, full curve, poor fit]","1.12 µM [rising, full curve]",39.6%
COc1ncc2nc(-c3ccc(F)cc3)c(=O)n(Cc3cccs3)c2n1,37.7%,"14.1 µM [rising, partial curve, poor fit]","14.1 µM [rising, partial curve]",45.9%
O=c1c(-c2ccc(F)cc2)nc2cnc(Nc3ccccc3)nc2n1C1CC1,27.6%,"0.0158 µM [rising, full curve, poor fit]","0.0501 µM [rising, full curve, poor fit]",36.8%
CCCN(C/C=C\I)[C@@H]1CCc2cccc(O)c2C1,69.6%,"35.5 µM [rising, partial curve, poor fit]","31.6 µM [rising, partial curve, poor fit]",72.8%
Cc1cnc(CNc2ccnc(-c3ccccc3C)n2)cn1,43.4%,"17.8 µM [rising, single point]","15.8 µM [rising, partial curve]",51.5%

SMILES,max response [1],AC50 [2],AC50 [3],max response [4]
CN(C)c1ccc(-c2nccc(NCc3cccs3)n2)cc1,-32.4%,"39.8 µM [falling, single point]","39.8 µM [falling, single point]",-59.8%
COc1cccc(-c2nc(NCCN3CCOCC3)c3ccccc3n2)c1,34.8%,"3.98 µM [rising, full curve, poor fit]","3.98 µM [rising, full curve, poor fit]",41.7%
CN1CCc2cc3c(cc2[C@@H]1[C@@H]1C(=O)Oc2c1ccc1c2OCO1)OCO3,73.7%,"14.1 µM [rising, partial curve, poor fit]","15.8 µM [rising, partial curve, poor fit]",98.2%
O=c1c(-c2cccc(Cl)c2)nc2cncnc2n1Cc1ccccc1,12.4%,"0.355 µM [rising, full curve]","0.398 µM [rising, full curve]",15.5%
CN(C)C(=O)c1ccc(-c2ccc3ncnc(N4CCNCC4)c3c2)cc1,32.6%,"14.1 µM [rising, partial curve]","14.1 µM [rising, partial curve, poor fit]",35.4%
CN(C)c1ccc(-c2cncnc2NCc2cccnc2)cc1,20.9%,"0.0282 µM [rising, full curve]","0.0224 µM [rising, full curve]",27.1%
O=C(O)CC[C@@H](C(=O)O)N1C(=O)c2ccccc2C1=O,9.95%,"7.08 µM [falling, single point]","6.31 µM [falling, single point]",8.36%
O=c1cnc2cnc(Oc3ccccc3)nc2n1Cc1cccs1,32.1%,"11.2 µM [rising, partial curve, poor fit]","2.82 µM [rising, partial curve, poor fit]",38.7%
COc1ccc(Oc2ncc3nc(-c4cccs4)c(=O)n(-c4ccccc4)c3n2)cc1,1.04%,"0.891 µM [rising, full curve]","1 µM [rising, full curve, poor fit]",1.02%
Clc1ccccc1-c1nc(-n2ccnc2)c2ccccc2n1,43.2%,"0.794 µM [rising, full curve]","0.708 µM [rising, full curve]",53.5%
COc1ccc(-c2cc(=O)c3cc(OC)ccc3o2)cc1,39.8%,"5.62 µM [rising, partial curve, poor fit]","5.62 µM [rising, partial curve]",56%
Cc1noc(C)c1-c1nc(N2CCN(C)CC2)c2ccccc2n1,38.8%,"3.55 µM [rising, full curve, poor fit]","3.16 µM [rising, partial curve, poor fit]",42.9%
O=c1cc(-c2ccc(O)cc2)oc2cccc(O)c12,78.6%,"28.2 µM [rising, partial curve, poor fit]","31.6 µM [rising, partial curve, poor fit]",103%
Clc1ccccc1-c1ccc2ncnc(NCc3cccnc3)c2c1,10.9%,"2.82 µM [rising, partial curve, poor fit]","2.82 µM [rising, partial curve, poor fit]",10.4%
O=c1c(-c2ccc(F)cc2)nc2cnc(N3CCOCC3)nc2n1CCc1ccccc1,16.9%,"1.58 µM [rising, full curve, poor fit]","1.58 µM [rising, full curve, poor fit]",26%
CN(C)c1ncnc2ccc(-c3cccc(C#N)c3)cc12,43.9%,"8.91 µM [rising, partial curve]","8.91 µM [rising, full curve]",55.1%
O=C(c1cccc(F)c1)N1CCC2(CCCN(Cc3ccncc3)C2)CC1,16.1%,"7.08 µM [rising, single point]","7.08 µM [rising, single point]",27.9%
Clc1ccc2nc(-c3ccccc3)[nH]c2c1,87.1%,"1.78 µM [rising, full curve]","1.58 µM [rising, full curve]",97.1%
COc1ccc2[nH]cc(CCNc3nc(-c4c(C)noc4C)nc4ccccc34)c2c1,16.9%,"0.112 µM [rising, partial curve, poor fit]","0.178 µM [rising, partial curve, poor fit]",25.6%
Cc1cnc(CNc2ncnc3ccc(-c4ccc5c(c4)OCO5)cc23)cn1,29.9%,"0.891 µM [rising, full curve, poor fit]","1 µM [rising, full curve, poor fit]",35.9%
